These results are taken from PubChem BioAssay AID1508623 (National Center for Advancing Translational Sciences (NCATS), 2021).

Screen size: about 48,000 compounds; about 450 (0.94%) were called active. Not shown: some 19% with an inconclusive outcome. Calls follow the shape of the dose curve; as a rule, active = well fitted inhibition curve with a large enough effect; inconclusive = small, poorly fitted or top-dose-only effect; inactive = no such curve, though single readings can be large or run the other way. This is one part of the list.

This test can be described thus: Primary qHTS for Identification of Small Molecule Inhibitors of Huntingtin Promoter Activity. Also: nearly all actives have a fitted effect of over 50% in size. The following applies: HEK293 HTT promoter firefly luciferase reporter (activity 0% = vehicle and -100% = no light), 24 h; series mostly up to 57.5 µM; activity change, negative = inhibition: at the top concentration. Summed up:
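HEK293 Fluc reporter, 2,500 cells/well, 24 h pre-culture; cpds up to 57.5 uM final, 24 h 37 degrees C; Dual-Glo, 10 min RT; normalized vehicle = 0%, zero RLU = -100%.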
In general terms: qHTS replaces the single test concentration by a dilution series.
Regarding `COc1ccc(-c2cc(C(F)(F)F)n3ncc(-c4ccccc4)c3n2)cc1`, the “activity change, negative = inhibition” value is inactive: -6.88%.

As to `COC(=O)c1ccc2c(=O)n(CCc3ccc(S(N)(=O)=O)cc3)c(SCC(=O)C(C)(C)C)nc2c1`, the “activity change, negative = inhibition” value is inactive: -5.5%.

Turning to `Cc1ccc(S(=O)(=O)CC(=O)Nc2nc3c(C)cccc3s2)cc1`, the “activity change, negative = inhibition” value was inactive: -18.3%.

`Cc1ccc(-c2c3c(=O)n(C)c(=O)n(C)c3c3cnc4ccccc4n23)cc1`: the “activity change, negative = inhibition” value is inactive: -3.72%.

With `Cc1ccc(N2CCN(Cc3nnc(-c4ccccc4F)o3)CC2)c(C)c1`, the “activity change, negative = inhibition” value was inactive: -18.7%.

On to `CCOc1ccc(NC(=O)CCc2c(C)nc3nc(-c4cc(OC)cc(OC)c4)nn3c2C)cc1`, for which the “activity change, negative = inhibition” value is inactive: -10.5%.

For the molecule `CC(=O)N1CCc2cc(Br)cc(S(=O)(=O)NCCc3cccc(C)c3)c21`, the “activity change, negative = inhibition” value is inactive: -7.1%.

On to `COc1ccc(-c2[nH]c3c(c2-c2c(-n4cccc4)n(C)c(=O)[nH]c2=O)c(=O)[nH]c(=O)n3C)cc1F`, for which the “activity change, negative = inhibition” value was inactive: -11.6%.

Turning to `COc1ccccc1Nc1nc(N)nc(N)c1S(=O)(=O)c1ccccc1`, the “activity change, negative = inhibition” value is inactive: -1.73%.

As to `Cn1c(SCC(=O)Nc2nc3ccccc3s2)ncc(C(=O)Nc2ccc(Cl)cc2)c1=O`, the “activity change, negative = inhibition” value was inactive: 3.75%.

Take `COc1cccc(NC(=O)Cn2nnc(C(=O)NCc3ccc4c(c3)OCO4)c2N)c1`: the “activity change, negative = inhibition” value was inactive: -1.85%.

Consider `CCOCCCNC(=O)c1cn(CC(C)C)c(=O)c2c1c1ccccc1n2C`, for which the “activity change, negative = inhibition” value was inactive: -12.4%.

On to `CSc1ncc(Cl)c(C(=O)N(C)c2ccccc2)n1`, for which the “activity change, negative = inhibition” value is inactive: -23.7%.

For the molecule `CCN1CCN(c2ncc3c(n2)CCN(Cc2cccc(F)c2F)C3)CC1`, the “activity change, negative = inhibition” value was inactive: -7.73%.

For `COC(=O)c1ccccc1NC(=O)c1nn(C)c2c1COc1ccccc1-2`, the “activity change, negative = inhibition” value was inactive: -13.1%.

As for `Cc1cccn2c(=O)c3cc(C#N)c(=O)n(-c4nnc(SCc5ccc(F)cc5)s4)c3nc12`, the “activity change, negative = inhibition” value is inactive: -14.2%.

Take `CC(Oc1ccccc1)C(=O)Nc1c(C(=O)Nc2cccc(F)c2)oc2ccccc12` (stereo not drawn): the “activity change, negative = inhibition” value is inactive: -17.6%.

Turning to `CCc1ccc(S(=O)(=O)Nc2cc3c(cc2C)n(C)c(=O)c(=O)n3C)cc1`, the “activity change, negative = inhibition” value was inactive: -20.7%.

Take `CCOC(=O)c1c(NC(=O)COc2ccc(Cl)cc2Cl)sc2c1CCCCC2`: the “activity change, negative = inhibition” value is inactive: -1.49%.

With `CN(C)c1ccc(CNC(=O)Cn2c(-c3cccs3)cc3cc(Cl)ccc32)cc1`, the “activity change, negative = inhibition” value is inactive: -29.8%.

For `COc1ccccc1NC(=O)N1CCN(c2nnc(C)c3c(C)n(-c4ccccc4)nc23)CC1`, the “activity change, negative = inhibition” value was inactive: -11.7%.

Take `Nc1c(-c2nc(-c3ccccc3Cl)no2)nnn1-c1ccccc1C(F)(F)F`: the “activity change, negative = inhibition” value was inactive: 24.3%.

`O=c1c2oc3ccccc3c2n(Cc2ccccc2F)c(=O)n1Cc1ccc2c(c1)OCO2`: the “activity change, negative = inhibition” value was inactive: 1.08%.

With `CCN(CC)S(=O)(=O)c1ccc(NC(=O)c2c(C)oc3ncnc(N4CCCCC4)c23)cc1`, the “activity change, negative = inhibition” value is inactive: 0%.

With `CCN(CC)CCN(C(=O)c1ccco1)c1nc2ccc(F)cc2s1`, the “activity change, negative = inhibition” value is inactive: -10.3%.

Take `Cc1ccc(-c2nnc(SCC(=O)NCc3ccccc3)o2)cc1`: the “activity change, negative = inhibition” value is inactive: -7.39%.

For `CCOc1ccc(CNS(=O)(=O)c2ccc3c(c2)CC(C)N3C(C)=O)cc1OC` (stereo not drawn), the “activity change, negative = inhibition” value is inactive: -15.4%.

In the case of `COc1ccc(OC)c(CCNC(=O)CCCn2c(=O)c3cccn3c3cccnc32)c1`, the “activity change, negative = inhibition” value was inactive: -0.383%.

For the molecule `O=C(NCc1ccccc1)c1ccc(CS(=O)(=O)c2c(Cl)cccc2Cl)o1`, the “activity change, negative = inhibition” value is inactive: -9.37%.

`COc1ccc(N2CCN(C(=O)CSc3nc(-c4ccccc4)no3)CC2)cc1`: the “activity change, negative = inhibition” value was inactive: 21%.

Turning to `COc1ccc(-c2n[nH]c3c2C(c2ccccn2)N(C)C3=O)cc1` (stereo not drawn), the “activity change, negative = inhibition” value was inactive: -4.63%.

As to `COc1ccc(-n2nc3c(N4CCC(C(=O)NC5CCCCC5)CC4)nnc(C)c3c2C)cc1`, the “activity change, negative = inhibition” value was inactive: -2.74%.

For `Cc1ccc2oc(=O)c3cnn(CC(=O)N4CCN(c5cccc(Cl)c5)CC4)c3c2c1`, the “activity change, negative = inhibition” value was inactive: 6.39%.

In the case of `CCOc1ccc(OCC)c(NC(=O)CN(C)S(=O)(=O)c2ccc3[nH]c(=O)oc3c2)c1`, the “activity change, negative = inhibition” value was inactive: -14.4%.

In the case of `Cc1cccc(C(=O)Nc2ccc3nc(SCC(=O)N4CCCC4)sc3c2)c1`, the “activity change, negative = inhibition” value is inactive: -15.7%.

In the case of `Cc1cc(C(=O)NCCc2ccc(Cl)cc2)c2c(C)nn(-c3ccccc3)c2n1`, the “activity change, negative = inhibition” value was inactive: 1.38%.

On to `COc1cc(CNC(=O)c2ccc(NC(=O)N3CCCCc4ccccc43)cc2)cc(OC)c1OC`, for which the “activity change, negative = inhibition” value was inactive: -23.6%.

`CC(=O)[C@@]1(O)CC[C@H]2[C@@H]3CCC4=CC(=O)CC[C@]4(C)[C@H]3CC[C@@]21C`: the “activity change, negative = inhibition” value is inactive: -3.67%.

Turning to `CC(=O)c1cccc(NC(=O)CCn2nc(C)c(S(=O)(=O)N3CCCCC3)c2C)c1`, the “activity change, negative = inhibition” value was inactive: -25.6%.

Take `O=C(c1cccs1)N1CCCc2cc(NS(=O)(=O)c3cc(F)ccc3F)ccc21`: the “activity change, negative = inhibition” value is inactive: -35.9%.

For the molecule `CCc1ccccc1NC(=O)C1CCCN(S(=O)(=O)c2ccc3[nH]c(=O)ccc3c2)C1` (stereo not drawn), the “activity change, negative = inhibition” value is inactive: -14%.

In the case of `Cc1ccc(OCC(=O)NCC(=O)OCc2cc(=O)n3nc(CC(C)C)sc3n2)cc1`, the “activity change, negative = inhibition” value was inactive: -6.43%.

Regarding `O=C(NCCc1ccc(Cl)cc1)c1cnc2sc(N3CCCC3)nn2c1=O`, the “activity change, negative = inhibition” value is inactive: -22.7%.

Consider `CC(=O)c1ccc(NC(=O)C2CCN(S(=O)(=O)c3c(C)noc3/C=C/c3ccc(C)cc3)CC2)cc1`, for which the “activity change, negative = inhibition” value is inactive: -21%.

With `COc1ccc(CNC(=O)CN2C(=O)COc3ccccc32)c(OC)c1`, the “activity change, negative = inhibition” value was inactive: 13.5%.

With `Oc1ccccc1-c1nc2cnccn2c1Nc1ccc(Cl)cc1`, the “activity change, negative = inhibition” value was inactive: -26.4%.

Take `COc1ccc(-c2nn3c(-c4ccccc4)nnc3c3ccccc23)cc1`: the “activity change, negative = inhibition” value is inactive: -4.73%.

Turning to `CCOc1ccc(C(=O)N2CCc3cc(OC)c(OC)cc3C2COc2ccc3c(C)cc(=O)oc3c2)cc1OCC` (stereo not drawn), the “activity change, negative = inhibition” value was inactive: -14.5%.
